In all, about 150,000 compounds went through this assay and about 6,500 (4.3%) were called active. This list was built around the results that the source calls inconclusive (neither active nor inactive); the mix of calls is not that of the screen. The call rests on the fitted dose curve; in most records, active means well fitted inhibition curve with a large enough effect (not every such curve was filed as active); inconclusive means small, poorly fitted or top-dose-only effect, or another doubt; inactive means no such curve, though single readings can be large or run the other way. No potency is given beside an inconclusive call; the fits are too rough.
These compounds were tested against 15-hydroxyprostaglandin dehydrogenase [NAD(+)] (Homo sapiens) (UniProt P15428) (assay: qHTS Assay for Inhibitors of HPGD (15-Hydroxyprostaglandin Dehydrogenase)). Details: purified HPGD, NADH fluorescence kinetic, PGE2 substrate; activity change, negative = inhibition: hits give low values.
Outline: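 NADH formation kinetics: reaction with 30 uM PGE2 and 1 mM NAD+ (final), 20 nM enzyme, Tris-HCl pH 8 with Tween 20, after 15 min compound preincubation at room temperature. Fluorescence change, last versus first of five reads.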
On the % scale 0 is the no-effect control and ±100 the full control effect; potency means the concentration at half of the fitted maximal effect; tags describe the fitted curve by direction and shape.

Chain of UniProt P15428 (P15428 whole entry, looked up): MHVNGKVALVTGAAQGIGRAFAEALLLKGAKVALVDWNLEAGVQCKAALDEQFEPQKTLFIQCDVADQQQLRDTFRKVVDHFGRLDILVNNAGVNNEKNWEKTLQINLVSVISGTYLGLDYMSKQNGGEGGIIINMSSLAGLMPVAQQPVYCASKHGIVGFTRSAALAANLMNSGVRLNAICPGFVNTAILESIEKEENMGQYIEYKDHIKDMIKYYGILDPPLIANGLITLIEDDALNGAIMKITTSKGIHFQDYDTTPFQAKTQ

Row | Structure (SMILES) | Potency | activity change, negative = inhibition
1 | CC1CCN(C(=O)c2ccc(-n3cnnn3)cc2)CC1 | active: 17.8 µM | –
2 | COc1cc(C2Nc3ccccc3C(=O)N2c2ccccc2)ccc1O (stereo not drawn) | inconclusive [inhibitor, partial curve] | –
3 | CC(C)C(=O)NC(=S)Nc1sc2c(c1C(N)=O)CCCC2 | active: 14.1 µM | –
4 | COc1ccc(OC(C)C(=O)N2CCc3ccccc3C2)cc1 (stereo not drawn) | active: 25.1 µM | –
5 | CCOC(=O)c1sc(/N=C/Nc2nc(C)c(C(=O)OCC)s2)nc1C | inconclusive [inhibitor, partial curve] | –
6 | COc1cc(C2CC(C(F)(F)F)n3ncc(C(=O)O)c3N2)cc(OC)c1OC (stereo not drawn) | – | inactive: -8.93%
7 | O=C(CSc1nnc(CNc2ccc(F)cc2)n1Cc1ccccc1)N1CCOCC1 | – | inactive: -6.21%
8 | O=C1NC(=O)c2cc(NC(=O)C3CCCCC3)ccc21 | inconclusive [inhibitor, partial curve] | –
9 | CCN(CC)C(=O)c1sc(NC(=O)c2ccc(OC)c([N+](=O)[O-])c2)c(C#N)c1C | active: 17.8 µM | –
10 | CCc1cc(OCCOCCN(C)C)ccc1Cl | – | inactive: -1.95%
11 | CCOc1cc(S(=O)(=O)N2CCCCC2)ccc1Cl | – | inactive: -12.6%
12 | CCOc1ccc2c(c1)nc(SCC(=O)c1cccs1)n2C | – | inactive: -9.92%
13 | O=C(CSc1nnnn1-c1cccc2c1CCCC2)N1CCOCC1 | inconclusive [inhibitor, partial curve] | –
14 | COC(=O)N1CCC2(CC1)CN(C(=O)Nc1ccccc1)C2 | – | inactive: -13.3%
15 | CCc1ccc(C(=O)COC(=O)c2cccs2)cc1 | inconclusive [inhibitor, partial curve, poor fit] | –
16 | CN(Cc1ccccc1)c1nc2c(c(=O)[nH]c(=O)n2C)n1CCSc1nc2ccccc2[nH]1 | – | inactive: -9.14%
17 | Cn1c(C(=O)N2CCCC(C(=O)NCCc3ccccc3)C2)cc2sccc21 (stereo not drawn) | – | inactive: -17.1%
18 | O=C(OC1CCOC1=O)c1ccc(-c2nc3ccccc3s2)s1 (stereo not drawn) | inconclusive [inhibitor, partial curve] | –
19 | Nc1cccc(C(F)(F)F)c1 | – | inactive: -2.62%
20 | CC(CCc1ccco1)NC(=O)Cn1ncc2c1-c1ccccc1OC2 (stereo not drawn) | – | inactive: -16.9%
21 | COc1cccc(C(=O)CSc2nnnn2C2CCCCC2)c1 | – | inactive: -24.8%
22 | O=C(Nc1ccc(S(=O)(=O)Nc2cnc3ccccc3n2)cc1)c1ccc(Br)o1 | inconclusive [inhibitor, partial curve] | –
23 | O=C(NCSc1ccnc(SCNC(=O)c2ccc(F)cc2)n1)c1ccc(F)cc1 | active: 22.4 µM | –
24 | COc1ccc(-c2cc(C(F)(F)F)n3ncc(C(=O)NCc4ccco4)c3n2)cc1 | inconclusive [inhibitor, partial curve] | –

Row | Structure (SMILES) | Potency | activity change, negative = inhibition
25 | Cc1cc(C)n2nc(SCC3COc4ccccc4O3)nc2n1 (stereo not drawn) | active: 7.08 µM | –
26 | CCn1c(=O)cc(SCC(=O)N2CCOCC2)c2ccccc21 | inconclusive [inhibitor, partial curve] | –
27 | O=C(Cn1c(=O)oc2ccccc21)NC(=O)NCc1ccccc1 | – | inactive: 6.26%
28 | Fc1ccc(NCc2nnc(SCc3nnc(-c4ccccc4)o3)n2Cc2ccccc2)cc1 | active: 28.2 µM | –
29 | O=C(OCc1ccccc1)c1cn(-c2ccccc2)nc1-c1ccncc1 | inconclusive [inhibitor, single point] | –
30 | O=C(COC(=O)c1ccccc1Br)NCc1ccccc1 | inconclusive [inhibitor, partial curve] | –
31 | O=c1c(-c2ccccc2)nc2cncnc2n1Cc1ccc(F)cc1 | inconclusive [inhibitor, single point] | –
32 | CC(=O)OCC(=O)NCC(=O)c1c[nH]c2ccccc12 | active: 15.8 µM | –
33 | CC(C)(C)c1nc2sc3c(c2c(=O)o1)CCCC3 | inconclusive [inhibitor, partial curve, poor fit] | –
34 | COc1ccc(-c2nc(CS(=O)(=O)CC(=O)Nc3ccc(Cl)cc3)c(C)o2)cc1 | inconclusive [inhibitor, partial curve] | –
35 | CC1CCCN(C(=S)Nc2ccc3nc4n(c(=O)c3c2)CCCCC4)C1 (stereo not drawn) | – | inactive: -28.6%
36 | N#Cc1c(NCCCO)nc(-c2ccco2)c2c1CCCC2 | inconclusive [inhibitor, partial curve] | –
37 | COc1ccc(C2C(C(=O)c3sc(C)nc3C)=C(O)C(=O)N2CCN(C)C)cc1 (stereo not drawn) | inconclusive [inhibitor, single point] | –
38 | COC(=O)CSc1ccc(-c2nc3ccc(C)cc3[nH]2)cn1 | inconclusive [inhibitor, single point] | –
39 | Cc1nn(-c2ccccc2)c(N2CCCC2)c1/C=N/NC(=O)c1cc2ccccc2cc1O | inconclusive [inhibitor, partial curve] | –
40 | CCCCOc1ccc(CNC(=S)N/N=C/c2ccc(OC)c(OC)c2)cc1 | active: 15.8 µM | –
41 | CC[C@@H](C)[C@H]1O[C@]2(CC[C@@H]1C)C[C@@H]1C[C@@H](C/C=C(\C)[C@@H](O[C@H]3C[C@H](OC)[C@@H](O[C@H]4C[C@H](OC)[C@@H](O)[C@H](C)O4)[C@H](C)O3)[C@@H](C)/C=C/C=C3\CO[C@@H]4[C@H](O)C(C)=C[C@@H](C(=O)O1)[C@]34O)O2 | – | inactive: -5.65%
42 | COc1ccccc1CNC(=O)N[C@@H](Cc1ccccc1)C(=O)O | – | inactive: -7.65%
43 | N#Cc1c2n(c3c(=O)n(Cc4ccc(Cl)cc4)cnc13)CCCCC2 | inconclusive [inhibitor, single point] | –
44 | S=C1NC=NC2N=CNC12 (stereo not drawn) | inconclusive [inhibitor, single point] | –
45 | O=C(Nc1ccccc1)c1nnsc1S(=O)c1ccc(Cl)cc1 (stereo not drawn) | active: 7.94 µM | –
46 | COCC(=O)N1CCC[C@@]2(CCN(Cc3ccccc3)C2)C1 | – | inactive: -4.78%
47 | CC(C)CC(=O)Nc1ccc(Nc2ccccc2)cc1 | active: 11.2 µM | –
48 | O=S(=O)(N/N=C\c1ccc(-c2ccccc2Cl)o1)c1ccccc1 | active: 15.8 µM | –
